From PubChem BioAssay AID588456 (National Center for Advancing Translational Sciences (NCATS), 2011)
Where “and” joins values, the source holds several entries; their conditions need not be identical. Equal values may be shown once. The whole screen tested about 390,000 compounds, of which about 55 (0.01%) were called active. The shares of active, inactive and inconclusive entries below differ from those in the screen. The call rests on the fitted dose curve; in most records, active means well fitted inhibition curve with a large enough effect; inconclusive means small, poorly fitted or top-dose-only effect; inactive means no such curve, though single readings can be large or run the other way. A potency beside an inconclusive call is a rough fit, not a confirmed value.

target: Thioredoxin reductase 1, cytoplasmic (Rattus norvegicus) (UniProt O89049); experiment: qHTS Assay for Substrates of Mammalian Selenoprotein Thioredoxin Reductase 1 (TrxR1): qHTS; conditions: purified TrxR1 substrate turnover, NADPH consumption readout; series mostly up to 114 µM; further: nearly all actives have a fitted effect of over 50% in size
Chain of UniProt O89049 (O89049 whole entry, looked up): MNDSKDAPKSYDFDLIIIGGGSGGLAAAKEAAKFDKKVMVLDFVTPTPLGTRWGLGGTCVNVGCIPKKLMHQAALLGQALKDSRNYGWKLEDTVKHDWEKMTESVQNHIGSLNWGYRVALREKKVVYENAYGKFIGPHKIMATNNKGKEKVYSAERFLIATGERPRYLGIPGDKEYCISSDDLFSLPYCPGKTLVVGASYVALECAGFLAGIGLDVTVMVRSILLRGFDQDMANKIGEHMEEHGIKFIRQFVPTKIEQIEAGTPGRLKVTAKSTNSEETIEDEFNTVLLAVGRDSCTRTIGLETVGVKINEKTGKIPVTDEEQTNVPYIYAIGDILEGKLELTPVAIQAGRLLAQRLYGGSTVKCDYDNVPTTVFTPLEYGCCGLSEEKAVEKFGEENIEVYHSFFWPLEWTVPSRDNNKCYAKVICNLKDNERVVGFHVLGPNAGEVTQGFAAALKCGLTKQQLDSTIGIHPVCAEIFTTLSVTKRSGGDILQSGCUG
Text: The selenoprotein thioredoxin reductase (TrxR; EC 1.8.1.9) is a FAD containing homodimeric pyridine nucleotide-disulfide oxidoreductase with many cellular roles. Together with NADPH and its prime substrate thioredoxin (Trx), the enzyme forms the core of the Trx system. The mammalian Trx system exerts a wide spectrum of functions including redox regulation, antioxidant defense, regulation of transcription factors as well as support of cell growth and replication. Many of these functions involve the reduction of Trx, which may subsequently reduce a number of different substrates including ribonucleotide reductase, peroxiredoxins or NFkB. Mammalian TrxR itself also has a broad substrate specificity, reducing both protein and non-protein substrates, including low molecular weight compounds such as dehydroascorbate, lipoic acid, ubiquinone, and juglone. In addition, several drugs in clinical use for anticancer treatment are indeed known to target TrxR1.
This BioAssay is a validation of an NADPH fluorescence-based, dual-purpose qHTS rTrxR1 assay designed to find potential inhibitors and substrates of rTrxR1. For this particular BioAssay, actives are potential substrate. See related BioAssay for inhibition data deposition.
NIH Molecular Libraries Probe Production Network [MLPCN]
NIH Chemical Genomics Center [NCGC]
Assay Provider: Elias Arner, Karolinska Institute
Assay protocol: 2 uL of reagents (buffer in column 4 as negative control and 90 nM rTrxR1 in columns 1-3 and 5-48) were dispensed into Greiner black solid-bottom 1,536-well assay plates, followed by 1 uL of NADPH (400 uM final concentration) to each well. The plates were centrifuged at 1000 rpm for 15 seconds and subsequently incubated for 5 min at room temperature (~22 deg C) to allow for rTrxR1 reduction. Compounds (23 nL) were then transferred via Kalypsys pin tool equipped with 1536-pin array (10 nL slotted pins, V&P Scientific, San Diego, CA). In addition, a duplicate 2-fold serial dilution of the control compounds auranofin, a known gold-based TrxR1 inhibitor, and juglone (5-hydroxy-1,4-naphthoquinone), a natural TrxR1 substrate, were pin-transferred to columns 2 and 3, respectively. After incubation for 15 min at room temperature (~22 deg C), 1 uL of selenite (400 uM final concentration) were dispensed to each well. The plate was immediately transferred to a ViewLux high-throughput CCD imager (PerkinElmer), wherein kinetic measurements of NADPH fluorescence (Ex 340 nm, Em 450 nm) were acquired (8 minute kinetic read, see Table 1). Read 1 was utilized to assess the capacity of a compound to serve as an rTrxR1 substrate, i.e. a decrease in NADPH fluorescence compared to the no-compound background is an indication of a substrate behavior for that particular compound. For inhibitory activity of a compound, delta values, computed as the difference in fluorescence intensity between the first and last reads of an 8-minute time kinetic window, were used. All reagents were diluted in an assay buffer consisting of 50 mM Tris-HCl, pH 7.5, 2 mM EDTA, and 0.01% Tween-20.
Throughout the screen, reagent bottle and all liquid lines were made light-tight to minimize reagent degradation. All screening operations were performed on a fully integrated robotic system (Kalypsys, San Diego, CA) containing one RX-130 and two RX-90 anthropomorphic robotic arms (Staubli, Duncan, SC). Library plates were screened starting from the lowest and proceeding to the highest concentration, and a 'double-pinning' step of the highest concentration was required to access higher concentrations of compounds. Vehicle-only plates, with DMSO being pin-transferred to the columns 5-48, were inserted uniformly at the beginning and the end of each library in order to monitor and record any shifts in the background, which can be affected by reagent dispensers or loss in enzyme activity over time. […]
Potency means the concentration at half of the fitted maximal effect; tags describe the fitted curve by direction and shape.

| Compound | Potency |
| --- | --- |
| CSc1ncc(Br)c(N2CC2)n1 | inconclusive: 89.1 µM [inhibitor, partial curve, poor fit] |
| C/C=C(/C)C(=O)O[C@H]1C(C)=C2[C@H]([C@@H]1OC(=O)CCCCCCC)[C@@](C)(OC(C)=O)C[C@H](OC(=O)CCC)[C@@]1(O)[C@H]2OC(=O)[C@@]1(C)O | inconclusive: 12.6 µM [inhibitor, partial curve] |
| COc1cc2c(c(OC)c1OC)-c1ccc(OC)c(=O)cc1[C@@H](NC(C)=O)CC2 | inconclusive: 9.47 µM [inhibitor, partial curve, poor fit] |
| CC1=NN(c2ccccc2)C(=O)/C1=C/c1c(O)[nH]c(=S)[nH]c1=O | inconclusive: 50.1 µM [inhibitor, partial curve, poor fit] |
| CC(C)(C)c1cc(C=C(C#N)C#N)cc(C(C)(C)C)c1O | inconclusive: 33.6 µM [inhibitor, single point] |
| CCn1nc(-c2ccccc2)nc2c(=O)n(C)c(=O)nc1-2 | inconclusive: 28.2 µM [inhibitor, partial curve, poor fit] |
| CCCCCCC(C)(C)c1ccc([C@@H]2C[C@H](O)CC[C@H]2CCCO)c(O)c1 | inconclusive: 79.4 µM [inhibitor, partial curve, poor fit] and inconclusive: 11.9 µM [inhibitor, partial curve, poor fit] |
| C/C(=N\N1CCCCCC1)c1c(O)n(-c2ccc(Cl)cc2)c(=O)[nH]c1=O | inconclusive: 89.1 µM [inhibitor, partial curve, poor fit] |
| Cc1cc(C(C)(C)C)cc(C)c1CC1=NCCN1 | inconclusive: 9.47 µM [inhibitor, partial curve, poor fit] |
| C[N+](C)(C)CCOC(=O)CBr | inconclusive: 16.8 µM [inhibitor, partial curve, poor fit] |
| CC1=CC(=Cc2sc3ccccc3[n+]2C)C=C(C)O1 | inconclusive: 79.4 µM [inhibitor, partial curve, poor fit] |
| CCOC(=O)c1cc(C)sc1/N=C/C1C(=O)NC(=S)NC1=O | inactive |
| O=c1c2ccccc2[se]n1-c1ccccc1 | inconclusive: 15.8 µM [inhibitor, partial curve] |
| O=C1NC(=O)N(c2ccc3c(c2)OCO3)C(=O)/C1=C\c1ccc(N2CCCCC2)o1 | inconclusive: 70.8 µM [inhibitor, partial curve, poor fit] |
| Cc1cc(C)cc(-n2c(O)c(C=Nc3ccc(N4CCOCC4)cc3)c(=O)[nH]c2=S)c1 | inconclusive: 79.4 µM [inhibitor, partial curve, poor fit] |
| CN1/C(=C\C=C2C(=O)NC(=O)NC2=O)C(C)(C)c2ccccc21 | inconclusive: 79.4 µM [inhibitor, partial curve, poor fit] |
| CCN(CCCl)Cc1ccccc1Br | inconclusive: 8.44 µM [inhibitor, partial curve, poor fit] |
| CCOC(=O)Nc1ccc(NCc2ccc(F)cc2)nc1N | inactive |
| CC[N+](CC)(CC)CCOc1cccc(OCC[N+](CC)(CC)CC)c1OCC[N+](CC)(CC)CC | inconclusive: 21.2 µM [inhibitor, partial curve, poor fit] |
| CCn1nc(-c2cccs2)nc2c(=O)n(C)c(=O)nc1-2 | active: 44.7 µM |
| CN(C)c1ccc(N=O)cc1 | inconclusive: 79.4 µM [inhibitor, partial curve, poor fit] |

| Compound | Potency |
| --- | --- |
| CN1CCc2cc3c(c4c2C1Cc1ccccc1-4)OCO3 (stereo unspecified) | inactive |
| COc1ccc(OC)c(N2Cc3ccccc3C2=N)c1 | inconclusive: 100 µM [inhibitor, single point] |
| CC(C)CNC(=O)c1c(N)n(Cc2ccco2)c2nc3ccccc3nc12 | inactive |
| O=C1CC(c2ccc(Br)cc2)c2c(c3ccccc3oc2=O)O1 (stereo unspecified) | inconclusive: 0.708 µM [inhibitor, partial curve, poor fit] |
| COC(=O)C1=C(C(=O)OC)SC2(S1)C(C(=O)OC)=C(C(=O)OC)Sc1c2ssc1=O | inconclusive: 89.1 µM [inhibitor, single point] |
| Cc1cc2c(C(C)C)c(O)c(O)c(C=O)c2c(O)c1-c1c(C)cc2c(C(C)C)c(O)c(O)c(C=O)c2c1O | inconclusive: 56.2 µM [inhibitor, partial curve] |
| Cc1cc(/C=C2\C(=O)NC(=O)N(c3ccccc3F)C2=O)c(C)n1-c1cc(C(=O)O)cc(C(=O)O)c1 | inactive |
| N#CC(C#N)=NNc1ccc([N+](=O)[O-])cc1 | inconclusive: 22.4 µM [inhibitor, partial curve, poor fit] |
| CN1CCN(C2=Nc3cc(Cl)ccc3Nc3ccccc32)CC1 | inconclusive: 33.6 µM [inhibitor, partial curve, poor fit] |
| CN1C2CCC1CC(OC(=O)c1cc(Cl)cc(Cl)c1)C2 (stereo unspecified) | inconclusive: 42.3 µM [inhibitor, partial curve, poor fit] |
| C=CCN1C(=O)/C(=C\c2ccc(N3CCOCC3)o2)C(=O)NC1=S | inactive |
| Brc1c(NC2=NCCN2)ccc2nccnc12 | inconclusive: 1.89 µM [inhibitor, full curve, poor fit] |
| N#C/C(=C\c1ccc(O)c(O)c1)C(=O)NCCCNC(=O)/C(C#N)=C/c1ccc(O)c(O)c1 | inconclusive: 21.2 µM [inhibitor, partial curve, poor fit] |
| C[C@]12CC[C@@H]3c4ccc(O)cc4C[C@@H](CCCCCCCCCS(=O)CCCC(F)(F)C(F)(F)F)[C@H]3[C@@H]1CC[C@@H]2O (stereo partly specified) | inconclusive: 13.4 µM [inhibitor, partial curve, poor fit] |
| O=C(O)CC1OCC=C2CN3CCC45C6=CC(=O)C(=O)C([N+](=O)[O-])=C6NC4C1C2CC35 (stereo unspecified) | active: 17.8 µM and active: 15.8 µM |
| CCCN(CCC)C1CCc2ccc(O)cc2C1 (stereo unspecified) | inconclusive: 21.2 µM [inhibitor, partial curve] |
| COc1ccc2c(c[n+](C)c3c4cc5c(cc4ccc23)OCO5)c1OC | inconclusive: 39.8 µM [inhibitor, single point] |
| CCCN1CCc2cccc3c2[C@H]1Cc1ccc(O)c(O)c1-3 | inconclusive: 11.9 µM [inhibitor, partial curve, poor fit] |
| O=C1NC(=O)N(c2ccc3c(c2)OCO3)C(=O)/C1=C/c1ccc(N2CCCC2)o1 | inconclusive: 79.4 µM [inhibitor, partial curve, poor fit] |
| CCCN1CCC[C@@H](c2cccc(O)c2)C1 | inconclusive: 15 µM [inhibitor, partial curve, poor fit] |
| CCNC(=O)[C@H]1O[C@@H](n2cnc3c(N)ncnc32)[C@H](O)[C@@H]1O | inconclusive: 3.77 µM [inhibitor, partial curve, poor fit] |

| Compound | Potency |
| --- | --- |
| CCCCCCCCCCCCCC(=O)O[C@@H]1[C@@H](C)[C@@]2(O)[C@@H](C=C(CO)C[C@@]3(O)C(=O)C(C)=C[C@@H]23)C2C(C)(C)[C@@]21OC(C)=O (stereo partly specified) | inconclusive: 22.4 µM [inhibitor, partial curve] |
| C[C@]12C=CC(=O)C=C1CC[C@@H]1C2=CC[C@]2(C)[C@@H](C(=O)CN3CCN(c4cc(N5CCCC5)nc(N5CCCC5)n4)CC3)CC[C@@H]12 | inconclusive: 79.4 µM [inhibitor, single point] and inconclusive: 12.6 µM [inhibitor, partial curve] |
| O=C1C(=O)c2ccccc2-c2ccccc21 | active: 3.16 µM |
| COC(=O)C1=C(C)NC(C)=C(C(=O)OC)C1c1ccccc1[N+](=O)[O-] | inconclusive: 37.7 µM [inhibitor, partial curve, poor fit] |
| Cc1ccc(-c2nc3c(=O)n(C)c(=O)nc-3n(C)n2)cc1 | active: 12.6 µM |
| CC(Cc1ccc(OCC(=O)O)cc1)NCC(O)c1cccc(Cl)c1 (stereo unspecified) | inconclusive: 33.6 µM [inhibitor, partial curve, poor fit] |
| CCOC(=O)c1ncn2c1CN(C)C(=O)c1cc(F)ccc1-2 | inconclusive: 0.134 µM [inhibitor, full curve, poor fit] |
| Cn1nc(-c2ccccc2)nc2c(=O)n(C)c(=O)nc1-2 | active: 39.8 µM |
| Cc1ccccc1-n1c(O)c(/C=C/C=Nc2ccccc2)c(=O)[nH]c1=O | inconclusive: 79.4 µM [inhibitor, partial curve, poor fit] |
| O=c1[nH]c(O)c(N=Nc2cc([N+](=O)[O-])ccc2O)c(=O)[nH]1 | inconclusive: 56.2 µM [inhibitor, partial curve, poor fit] |
| CCn1nc(/C=C/c2ccccc2)nc2c(=O)n(C)c(=O)nc1-2 | active: 15.8 µM |
| Cc1cccc(-n2c(O)c(/C=C/C=Nc3ccccc3)c(=O)[nH]c2=O)c1 | inconclusive: 79.4 µM [inhibitor, partial curve, poor fit] |
| COc1cc(/C=C/c2cccc[n+]2C)ccc1OCC(=O)Nc1ccccc1C | inconclusive: 89.1 µM [inhibitor, partial curve, poor fit] |
| CC(=O)CC(c1ccccc1[N+](=O)[O-])c1c(O)c2ccccc2oc1=O (stereo unspecified) | inconclusive: 89.1 µM [inhibitor, single point] |
| CN1C[C@H](C(=O)NC2(C)OC3(O)[C@@H]4CCCN4C(=O)[C@H](Cc4ccccc4)N3C2=O)CC2c3cccc4[nH]cc(c34)C[C@H]21 (stereo partly specified) | inactive |
| CN1C[C@H](C(=O)N[C@]2(C)O[C@@]3(O)[C@@H]4CCCN4C(=O)[C@H](Cc4ccccc4)N3C2=O)C[C@@H]2c3cccc4[nH]cc(c34)C[C@H]21 | inconclusive: 4.23 µM [inhibitor, full curve, poor fit] |
| N#C/C(=C/c1ccc(O)c(O)c1)C(N)=S | inconclusive: 29.9 µM [inhibitor, partial curve, poor fit] |
| Cc1cc(C)cc(N2C(=O)/C(=C\c3ccc(N4CCN(C)CC4)o3)C(=O)NC2=S)c1 | inconclusive: 79.4 µM [inhibitor, partial curve, poor fit] |
| CNC(=O)O/N=C(\C)Cc1nnn(-c2cc(C)on2)n1 | inconclusive: 100 µM [inhibitor, partial curve, poor fit] |
